Sequences and labels used below:
T1: UNK ZnF1-3 (human, UniProt Q9C0B0 31-174)
T1 sequence: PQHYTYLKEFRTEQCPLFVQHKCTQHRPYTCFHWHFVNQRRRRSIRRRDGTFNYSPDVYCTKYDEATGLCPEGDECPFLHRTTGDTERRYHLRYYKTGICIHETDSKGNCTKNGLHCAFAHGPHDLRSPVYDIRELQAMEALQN

B1: 107528239_107528359_927_CDS_ENSMUSG00000028613_ENSMUST00000106731|mouse|control|control (ssRNA)
RNA: GGGAGUUCUACAGUCCGACGAUCAAGAGAGUACAGCGGCGGCGUCCAUCGGUUGUGGCCACUGAGAUGGUCUUAUUGCCUGAGUCUGUCCAGUAGAUGUGCUUAUGGACCCAGUCCACCGCCAGGCCCUCCGGGGAGUGCAGCCAACAGAGGAUUGAGCAUCA
B2: chr18:3457883:3457884:+_ENSG00000177426_ENST00000400167|hu_hu|FALSE|FALSE (ssRNA)
RNA: GGGAGUUCUACAGUCCGACGAUCGGGUUAAGCUGUAAGUUUUGCCUGAAGCUCCAUCUCUGCAGCCCGUUUGAGUGCAACAUCCACUAGAAGCUGAAAUCCACUGAAGUCCUGGUUGAGGUCCGGUGGAGUAGGGGGAGGAGUCAACAGAGGAUUGAGCAUCA
B3: 83885755_83889540_1110_CDS_ENSG00000013375_ENST00000513973|human|control|control (ssRNA)
RNA: GGGAGUUCUACAGUCCGACGAUCAGUCUUAGUGCAAUAGACAGGUACCUUCAUAACUUCUUCAAGAUACCGUGUUGAACUUCCAUUUGCAUAUGCAGUUUGUACAACACCAAUAUUCAAACUUUCUCCAAUCUCCACCAGGAGCAACAGAGGAUUGAGCAUCA
B4: chr16:16330038:16330039:-_ENSMUSG00000022789_ENSMUST00000023477|mus_hu|FALSE|FALSE (ssRNA)
RNA: GGGAGUUCUACAGUCCGACGAUCACUUUUAUCAUCCACGGGUUCACCGUAGCUAUUUAGAAGAGACUGAUACUGAGCAGCUAGAACAUUUAUUCUUGUUUUCAACUCUGGUAAACAAUCUCUGAUGUGAUGCAUCAGUAACCUCAACAGAGGAUUGAGCAUCA
B5: chr5:71490574:71490575:+_ENSG00000131711_ENST00000296755|hu_hu|FALSE|FALSE (ssRNA)
RNA: GGGAGUUCUACAGUCCGACGAUCUUUCUCCGCAGGGUUUGCUGGAUGCCACACAAUCAAAGAUGAGACUGAAGUUAAGUAGGAAAUCGGGAGAUCUACUUCUUGACCAUUAGGCAGAAUGAAUUCAGCCUUGUCUUUGUUGGUCAACAGAGGAUUGAGCAUCA
B6: 118767367_118771021_1249_CDS_ENSG00000125354_ENST00000354416|human|control|control (ssRNA)
RNA: GGGAGUUCUACAGUCCGACGAUCCUGGACGAACAUCUGUCUCAUCUCCUCUUCUUUUUUCUGGAGUUCCCCUAGGAACUCGUUCCUUUUGGCCUCAUAUGUCUCCUGUAAACUGAAGGGUUUGCUGUCAGGGUCGGUGUCCUUCAACAGAGGAUUGAGCAUCA
B7: chr7:65705844:65705845:+_ENSG00000169902_ENST00000304842|hu_mus|hu_hu_hu_mus_False|58_68 (ssRNA)
RNA: GGGAGUUCUACAGUCCGACGAUCAAACGGAUCUUUGUUACAUAAAUAAGGUGCCGGCUCCCCAUGUUUAACGAUAAUUUCUAGUAAGAAGGCUUGCAUGGCAGAAUCUAGCACUUCAUCUGUGACACCCGCCUCAUCCAAGCGCAACAGAGGAUUGAGCAUCA
B8: 108159075_108159195_1344_CDS_ENSMUSG00000034610_ENSMUST00000043368|mouse|control|control (ssRNA)
RNA: GGGAGUUCUACAGUCCGACGAUCUUCUAGACGUUCUUCUGCUUGUUUCAAGCCUAGCCUCUGCUCAGGUGUCAAAGCAGAUUCAUCUAUUACAGUGGCAUUUUCUAAAUAGUCCAUCUCAGAAGAAUUUUCUUUGUUAGAUUCCAACAGAGGAUUGAGCAUCA
B9: chr3:9412954:9412955:+_ENSG00000134077_ENST00000452837|hu_mus|hu_hu_hu_mus_False|18_18 (ssRNA)
RNA: GGGAGUUCUACAGUCCGACGAUCGGUUGAUAUCUCUUCUUUGAUGGCUGGAUUUUCAUAAUAGUCCAAGAUAUGUGAAUCUGAAGUGCUGCUGGCAUGCUUUUUCUUACCAUCUUUCUGAUCGAUUUUGUCUCCUUGUCCACACAACAGAGGAUUGAGCAUCA
B10: chr13:45008927:45008928:-_ENSG00000102804_ENST00000261489|perfect_dup|FALSE|FALSE (ssRNA)
RNA: GGGAGUUCUACAGUCCGACGAUCCGGACUGGCCAGCGUCUUCAGCAGAUUGUUCUCCUGCUCCAGCUGGGAGUUUUUCUCUAUUAGUUCUUUGAUCUGCUCCUUCAGAACUUCCACUUCCUCCCUCACCGCAUACAUCAAAUGCAACAGAGGAUUGAGCAUCA
B11: 4396501_4396621_516_3pUTR_ENSMUSG00000054611_ENSMUST00000075856|mouse|control|control (ssRNA)
RNA: GGGAGUUCUACAGUCCGACGAUCUCCGAGGCGUCAGGGAAGCAAGACCACUCGGCUACUCCCCCAAGCUGGCGGUCAGCAGCCCCAGCCCGAGACCCGGGUCAACCGGGCCGCGGGAAACACCCUCCUCUCGGUACCCUCAGCCAACAGAGGAUUGAGCAUCA
B12: chr16:16330038:16330039:-_ENSMUSG00000022789_ENSMUST00000023477|mus_hu|motif|central (ssRNA)
RNA: B4 RNA with U81G, A82G
B13: chr17:65740002:65740003:+_ENSG00000130935_ENST00000581375|hu_hu|hu_hu_hu_mus_False|1_108 (ssRNA)
RNA: GGGAGUUCUACAGUCCGACGAUCAACCCGUUCUUGCUCCCUGGACGAACAGGAAGAUUCAUAUUAAAAAAAAUAUAUAUCCAUCAAGUUAGGUGUGGUGGCCACACCUUUACUCCCAGCACUUUGGGAGGUGGAUCCUCUAUUCAACAGAGGAUUGAGCAUCA
B14: 25441313_25442467_1572_CDS_ENSMUSG00000015087_ENSMUST00000058137|mouse|control|control (ssRNA)
RNA: GGGAGUUCUACAGUCCGACGAUCUGCCACCAUUGGGUUCCCUCCUAGGGCCUCCCCAUCGUCACUGUCACUAUCCUGCUGGGGACCUUUGGCUCCAACUUUCUUGUCUUUAGGCACACUUGUGUCUUCCAGGAAGCUUCGGUCCAACAGAGGAUUGAGCAUCA
B15: 104849616_104851911_689_CDS_ENSMUSG00000021710_ENSMUST00000109315|mouse|control|control (ssRNA)
RNA: GGGAGUUCUACAGUCCGACGAUCCUCACUCAUUCUCUUCUUCAUUGAUUUGAUUUCAUUUUUUACGUGUUCUGGAAGAUGGAGUCCAUUCCUUUUCCCCAUUUUAAUUGAUUUUUCCAAGUAUCGCCUGGCCUCAGGCUUUAUCAACAGAGGAUUGAGCAUCA
B16: chrX:16864032:16864033:-_ENSG00000102054_ENST00000404022|hu_hu|motif|central (ssRNA)
RNA: GGGAGUUCUACAGUCCGACGAUCCAUGAUGUUAUCCUCAGACACUGAGCAAAUGACCCAAGGCUCAUUGGGGUUCCAGCGGAAAUCUGAAAUCUUAGCAGUGUGUCCUCCAUGAAUAAACAGGAGUUCUGGAGGCCCAUCUUCCAACAGAGGAUUGAGCAUCA
B17: chr3:158399885:158399886:+_ENSG00000168827_ENST00000264263|hu_mus|FALSE|FALSE (ssRNA)
RNA: GGGAGUUCUACAGUCCGACGAUCCUCAUCAGAAAACUCCAACUUCGUGUAGUCCUCUGGGGGCAAGGGCUCCAGCACUCCUAUUACUUUUCCAAACUGGCCGGCACCACCCGACUGCUUUUUAUGUGUAAAAUCAAACGGCACCAACAGAGGAUUGAGCAUCA
B18: 52112337_52131274_754_3pUTR_ENSMUSG00000022637_ENSMUST00000114471|mouse|control|control (ssRNA)
RNA: GGGAGUUCUACAGUCCGACGAUCAUCAAUGGUUGACUUCAGAGCCAUUGCUUCCAGGCCAGAGCUGAUCUGAUGGACCUCAUGCAGGCACUGUCUGAAGACUUUCCAUGGUACAAUAGUUUUGUCUCCAAAAAACUUCCUCCACAACAGAGGAUUGAGCAUCA
B19: chr18:10004928:10004929:-_ENSMUSG00000047879_ENSMUST00000092096|mus_hu|FALSE|FALSE (ssRNA)
RNA: GGGAGUUCUACAGUCCGACGAUCCUGAAGUCGCAAUUUAAGUCCUGUAAAAAGAUACUUGACUUCCUGAUUGAUAAAACAGCUAAGCUGAAGUUGAUUUUCCUUUCCUUUGGUGACUUCUUCUUCUUCAGAUUCUGUACAUUUCAACAGAGGAUUGAGCAUCA
B20: chr6:107361193:107361194:+_ENSG00000130349_ENST00000311381|hu_hu|FALSE|FALSE (ssRNA)
RNA: GGGAGUUCUACAGUCCGACGAUCUUUAGUAGAUUUUGUAGACCUUAUAUUACUUUUGAGUCUUACGGAAAAAGGAAAAAUACAUUCUGGAGAUAGUAAAAGCCCUGGGAGUCUCAGUGAGAAAAUAUUAUAAAAAAGUGUUUUCAACAGAGGAUUGAGCAUCA
B21: chr4:57314706:57314707:+_ENSG00000128050_ENST00000264221|hu_mus|hu_hu_hu_mus_True|78_88 (ssRNA)
RNA: GGGAGUUCUACAGUCCGACGAUCCAGAAUUUCAAAAAUAGCUUGUGUAGCAUGACUCAUGAUAUCCACUUCAGUCUGCCCUAUAACAAGGCCAGCAAAACAGAAUUUUGCAGCAAUGAGUUGCUCCUCAGACCACUGUGGAUCCAACAGAGGAUUGAGCAUCA
B22: chr5:132440482:132440483:+_ENSG00000170606_ENST00000304858|hu_mus|FALSE|FALSE (ssRNA)
RNA: GGGAGUUCUACAGUCCGACGAUCACCUUCCAAGGCGUAAUACGAACUUCUGUCAUGUAUAAGGAAAAGCCUGCCUGGUGGCUGUCGCGGCUUUUGUUAGAGCUCAGUUUCCCCAAACACACUUCACCUUGUAGAAGCAUGAUUCAACAGAGGAUUGAGCAUCA

Substitutions are numbered along the chain they refer to. This is one part of the list.

This assay concerns the target T1, UNK ZnF1-3. The experiment in a line: nsRBNS (natural sequence RNA bind-n-seq); RBNS binding buffer (assumed for nsRBNS): 25 mM Tris pH 7.5, 150 mM KCl, 3 mM MgCl2, 0.01% Triton X-100, 500 ug/ml BSA, 20 U/ml SUPERase-In, 4 C; UNK is unkempt and MSI1 is Musashi-1; names of the RNAs are library labels; protein concentration not given here; high values mean tight binding.
The molecule B1 displayed a binding signal of 0.618 enrichment R. B2: the binding signal came to 1.21 enrichment R.

In turn, B3 yielded a binding signal of 0.816 enrichment R. On to B4, for which the binding signal came out at 0.845 enrichment R. For B5 the value was 1.14 enrichment R; for B6, 0.593 enrichment R; for B7, 0.598 enrichment R. B8 showed a binding signal of 0.282 enrichment R. Take B9: the binding signal worked out at 0.416 enrichment R. The value for B10 was 1.03 enrichment R. The value for B11 was 0.741 enrichment R. The value for B12 was 0.865 enrichment R; that for B13 was 0.96 enrichment R; that for B14 was 0.658 enrichment R. As to B15, the binding signal came to 0.464 enrichment R. B16 came in with a binding signal of 1.36 enrichment R.

As to B17, the binding signal is 0.934 enrichment R. The value for B18 was 0.85 enrichment R; that for B19 was 0.601 enrichment R. For B20 the value was 2 enrichment R; for B21, 0.939 enrichment R; for B22, 0.703 enrichment R.
